Test results published in the supplement of paper PMC4604168 (melanoma cell lines).
The other results are listed elsewhere or left out. Repeats are few or missing, and single values can be far off.

Experiments:
Assay in all cases: cell count relative to DMSO control; melanoma cells; higher = more viable cells
[1] = tested on: WM115; settings: library dose: low library concentration; 72 h
[2] = tested on: WM1716; settings: library dose: low library concentration; 72 h
[3] = tested on: WM1745; settings: library dose: low library concentration; 72 h
[4] = tested on: WM3526; settings: library dose: low library concentration; 72 h
[5] = tested on: WM3619; settings: library dose: low library concentration; 72 h
[6] = tested on: WM451Lu; settings: library dose: low library concentration; 72 h
[7] = tested on: 501Mel; settings: library dose: standard library concentration; 72 h
[8] = tested on: A101D; settings: library dose: standard library concentration; 72 h
[9] = tested on: A2058; settings: library dose: standard library concentration; 72 h
[10] = tested on: A375; settings: library dose: standard library concentration; 72 h

| Structure (SMILES) | cell count [1] [%] | cell count [2] [%] | cell count [3] [%] | cell count [4] [%] | cell count [5] [%] | cell count [6] [%] | cell count [7] [%] | cell count [8] [%] | cell count [9] [%] | cell count [10] [%] |
| --- | --- | --- | --- | --- | --- | --- | --- | --- | --- | --- |
| Cc1cn(-c2cc(NC(=O)c3ccc(C)c(Nc4nccc(-c5cccnc5)n4)c3)cc(C(F)(F)F)c2)cn1 [nilotinib] + Cn1c(=O)n(-c2ccc(C(C)(C)C#N)cc2)c2c3cc(-c4cnc5ccccc5c4)ccc3ncc21 [NVP-BEZ235] (first compound 0.2 µM, partner dose 0.004 µM) | 115 | 95.4 | 98.3 | 104 | 91.1 | 108 |  |  |  |  |
| Cn1c(=O)n(-c2ccc(C(C)(C)C#N)cc2)c2c3cc(-c4cnc5ccccc5c4)ccc3ncc21 + CCN(CC)CCCCNc1ncc2cc(-c3cc(OC)cc(OC)c3)c(NC(=O)NC(C)(C)C)nc2n1 [PD173074] (first compound 0.004 µM, partner dose 0.1 µM) | 92.3 | 83.6 | 106 | 90.5 | 90.2 | 101 |  |  |  |  |
| CC(C)C[C@H](NC(=O)[C@H](Cc1ccccc1)NC(=O)c1cnccn1)B(O)O [Bortezomib] + COC(=O)c1sccc1S(=O)(=O)Nc1ccc(Nc2ccccc2)cc1OC [GSK0660] (first compound 0.001 µM, partner dose 1 µM) | 94.6 | 28.9 | 54.3 | 66.3 | 6.34 | 97.2 |  |  |  |  |
| Cc1cn(-c2cc(NC(=O)c3ccc(C)c(Nc4nccc(-c5cccnc5)n4)c3)cc(C(F)(F)F)c2)cn1 [nilotinib] + CCCS(=O)(=O)Nc1ccc(F)c(C(=O)c2c[nH]c3ncc(Cl)cc23)c1F [PLX4720] (first compound 0.2 µM, partner dose 0.08 µM) | 99 | 103 | 79.6 |  | 80.7 | 93.8 |  |  |  |  |
| Cc1cc(Nc2cc(N3CCN(C)CC3)nc(/C=C/c3ccccc3)n2)n[nH]1 + O=C(Nc1ccccc1)c1cc([N+](=O)[O-])ccc1Cl [GW9662] (first compound 0.04 µM, partner dose 2 µM) | 99.2 | 82.8 | 101 | 91.2 | 96.6 | 58.1 |  |  |  |  |
| Cc1cn(-c2cc(NC(=O)c3ccc(C)c(Nc4nccc(-c5cccnc5)n4)c3)cc(C(F)(F)F)c2)cn1 [nilotinib] + C[C@@H]1CCN(C(=O)CC#N)C[C@@H]1N(C)c1ncnc2[nH]ccc12 [CP690550] (first compound 0.2 µM, partner dose 1 µM) | 109 | 91.3 | 95.6 | 84.6 | 103 | 126 |  |  |  |  |
| Cc1cc(Nc2cc(N3CCN(C)CC3)nc(/C=C/c3ccccc3)n2)n[nH]1 + Oc1cc(-c2nc(-c3ccccc3)[nH]c2-c2ccncc2)ccc1Cl [L779450] (first compound 0.04 µM, partner dose 0.2 µM) | 75 | 94.5 | 85.1 | 65.6 | 84 | 100 |  |  |  |  |
| Cc1cn(-c2cc(NC(=O)c3ccc(C)c(Nc4nccc(-c5cccnc5)n4)c3)cc(C(F)(F)F)c2)cn1 [nilotinib] + Cn1cc(/C=C2\C(=O)Nc3cccnc32)c2ccccc21 [GW441756] (first compound 0.2 µM, partner dose 0.4 µM) | 99 | 104 | 95.3 | 99.3 | 88.1 | 96.4 |  |  |  |  |
| Cc1cn(-c2cc(NC(=O)c3ccc(C)c(Nc4nccc(-c5cccnc5)n4)c3)cc(C(F)(F)F)c2)cn1 [nilotinib] + O=C(O)C(=O)Nc1sc2c(c1C(=O)O)CCNC2 [TCS401] (first compound 1 µM, partner dose 8.33333 µM) |  |  |  |  |  |  | 105 | 93.6 | 107 | 202 |
| Cc1cc(Nc2cc(N3CCN(C)CC3)nc(/C=C/c3ccccc3)n2)n[nH]1 + COc1ccc(-c2ccc3c(N4CCOCC4)nc(N4C[C@@H](C)O[C@@H](C)C4)nc3n2)cc1CO [KU0063794] (first compound 0.2 µM, partner dose 0.1 µM) |  |  |  |  |  |  | 72.4 | 75.8 | 65.7 | 86.9 |
| Cc1cn(-c2cc(NC(=O)c3ccc(C)c(Nc4nccc(-c5cccnc5)n4)c3)cc(C(F)(F)F)c2)cn1 [nilotinib] + N#Cc1c(O)c2c(-c3ccc(-c4ccccc4O)cc3)csc2[nH]c1=O [A769662] (first compound 1 µM, partner dose 10 µM) |  |  |  |  |  |  | 95.2 | 93 | 83.8 | 136 |
| CC(C)C[C@H](NC(=O)[C@H](Cc1ccccc1)NC(=O)c1cnccn1)B(O)O [Bortezomib] + c1cc(-c2cnn3cc(-c4ccc(OCCN5CCCCC5)cc4)cnc23)ccn1 [Dorsomorphin] (first compound 0.005 µM, partner dose 2 µM) |  |  |  |  |  |  | 1.55 | 7.7 | 6.88 | 72 |
